# Test results taken from paper PMC10618235.
# Amino acid sequences for entries named in this document (tags omitted).
# UniProt P20248: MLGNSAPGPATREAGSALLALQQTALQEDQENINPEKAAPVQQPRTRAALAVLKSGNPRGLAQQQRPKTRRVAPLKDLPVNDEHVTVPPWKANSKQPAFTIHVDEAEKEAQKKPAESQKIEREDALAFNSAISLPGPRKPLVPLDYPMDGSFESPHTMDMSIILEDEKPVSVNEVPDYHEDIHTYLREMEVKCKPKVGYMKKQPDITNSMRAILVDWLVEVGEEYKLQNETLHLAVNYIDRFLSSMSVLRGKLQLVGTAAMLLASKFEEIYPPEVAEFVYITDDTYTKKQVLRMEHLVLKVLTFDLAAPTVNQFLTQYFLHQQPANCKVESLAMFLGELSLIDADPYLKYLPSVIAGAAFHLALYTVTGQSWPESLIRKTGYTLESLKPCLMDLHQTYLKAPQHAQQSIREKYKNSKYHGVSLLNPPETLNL
# Where a chain is given by its changes, count along the chain named. Names may count otherwise. No constants are given. Whether binding was seen depends on the method and setting. In cells and extracts the contact can be indirect. Some binding calls cover weakened binding; strength is not graded here. For some of these results: Tags and fused reporters may be left off the sequences shown.
# T1: Flag-FBXL6 (F-Box and Leucine Rich Repeat Protein 6), wild type (UniProt Q8N531)
# T1 sequence: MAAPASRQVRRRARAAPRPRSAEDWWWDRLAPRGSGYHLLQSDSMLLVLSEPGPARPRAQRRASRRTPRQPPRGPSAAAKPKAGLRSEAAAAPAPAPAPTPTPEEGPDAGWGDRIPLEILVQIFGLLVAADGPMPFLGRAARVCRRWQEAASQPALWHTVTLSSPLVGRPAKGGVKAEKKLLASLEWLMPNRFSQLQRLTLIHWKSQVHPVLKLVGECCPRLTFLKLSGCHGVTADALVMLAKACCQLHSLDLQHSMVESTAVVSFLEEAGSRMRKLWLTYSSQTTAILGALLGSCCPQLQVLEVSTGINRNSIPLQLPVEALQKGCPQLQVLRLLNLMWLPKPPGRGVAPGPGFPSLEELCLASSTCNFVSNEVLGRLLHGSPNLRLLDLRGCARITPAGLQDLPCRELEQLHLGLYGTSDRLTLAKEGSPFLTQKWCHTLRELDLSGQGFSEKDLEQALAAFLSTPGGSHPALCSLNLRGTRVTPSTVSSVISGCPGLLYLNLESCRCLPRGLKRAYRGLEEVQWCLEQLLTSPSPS
# T2: FBXL6(ΔLRR219-244) (UniProt Q8N531)
# T2 sequence: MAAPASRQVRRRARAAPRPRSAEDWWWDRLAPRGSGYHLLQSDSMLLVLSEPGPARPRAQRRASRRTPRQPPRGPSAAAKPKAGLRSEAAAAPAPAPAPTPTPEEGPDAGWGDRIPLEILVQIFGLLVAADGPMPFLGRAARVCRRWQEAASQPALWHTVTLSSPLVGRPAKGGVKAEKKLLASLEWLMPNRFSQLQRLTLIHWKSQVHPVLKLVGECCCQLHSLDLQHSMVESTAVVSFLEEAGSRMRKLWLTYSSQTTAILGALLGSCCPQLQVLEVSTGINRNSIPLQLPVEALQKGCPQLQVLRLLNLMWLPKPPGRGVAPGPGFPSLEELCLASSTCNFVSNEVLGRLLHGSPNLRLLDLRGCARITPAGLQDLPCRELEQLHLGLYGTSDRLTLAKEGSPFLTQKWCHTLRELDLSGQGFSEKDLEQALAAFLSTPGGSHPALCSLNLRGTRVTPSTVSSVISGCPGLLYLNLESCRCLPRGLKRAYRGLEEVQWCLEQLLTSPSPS
# T3: FBXL6(ΔLRR383-408) (UniProt Q8N531)
# T3 sequence: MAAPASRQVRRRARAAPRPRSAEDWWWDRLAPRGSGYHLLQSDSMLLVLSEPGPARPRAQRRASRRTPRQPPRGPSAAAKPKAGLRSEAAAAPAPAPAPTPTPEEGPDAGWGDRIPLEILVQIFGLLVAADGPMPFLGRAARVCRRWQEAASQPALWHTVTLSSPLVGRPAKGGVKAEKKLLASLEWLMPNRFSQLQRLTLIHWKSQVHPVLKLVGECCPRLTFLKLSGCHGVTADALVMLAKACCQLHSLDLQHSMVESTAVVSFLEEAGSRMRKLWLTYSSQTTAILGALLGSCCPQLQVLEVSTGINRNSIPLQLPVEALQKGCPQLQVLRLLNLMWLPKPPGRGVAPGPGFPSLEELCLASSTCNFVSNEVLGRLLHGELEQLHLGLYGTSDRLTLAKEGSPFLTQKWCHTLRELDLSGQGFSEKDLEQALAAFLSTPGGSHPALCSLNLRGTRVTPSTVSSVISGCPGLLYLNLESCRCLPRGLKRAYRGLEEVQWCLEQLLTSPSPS
# B1: TKT (transketolase) in the co-IP with the FBXL6 LRR deletion mutants (Supplementary Fig. 6d) (protein, UniProt P29401 1-623)
# chain: MESYHKPDQQKLQALKDTANRLRISSIQATTAAGSGHPTSCCSAAEIMAVLFFHTMRYKSQDPRNPHNDRFVLSKGHAAPILYAVWAEAGFLAEAELLNLRKISSDLDGHPVPKQAFTDVATGSLGQGLGAACGMAYTGKYFDKASYRVYCLLGDGELSEGSVWEAMAFASIYKLDNLVAILDINRLGQSDPAPLQHQMDIYQKRCEAFGWHAIIVDGHSVEELCKAFGQAKHQPTAIIAKTFKGRGITGVEDKESWHGKPLPKNMAEQIIQEIYSQIQSKKKILATPPQEDAPSVDIANIRMPSLPSYKVGDKIATRKAYGQALAKLGHASDRIIALDGDTKNSTFSEIFKKEHPDRFIECYIAEQNMVSIAVGCATRNRTVPFCSTFAAFFTRAFDQIRMAAISESNINLCGSHCGVSIGEDGPSQMALEDLAMFRSVPTSTVFYPSDGVATEKAVELAANTKGICFIRTSRPENAIIYNNNEDFQVGQAKVVLKSKDDQVTVIGAGVTLHEALAAAELLKKEKINIRVLDPFTIKPLDRKLILDSARATKGRILTVEDHYYEGGIGEAVSSAVVGEPGITVTHLAVNRVPRSGKPAELLKMFGIDRDAIAQAVRGLITKA
# B2: wild-type TKT (transketolase), transfected into Huh7 cells (protein, UniProt P29401 1-623)
# chain: B1 chain
# B3: endogenous TKT (transketolase) of human Huh7 cells (protein, UniProt P29401 1-623)
# chain: B1 chain
# B4: TKT T287A mutant, transfected into Huh7 cells (protein, UniProt P29401 1-623)
# chain: B1 chain with T287A
# Tests used:
# [1] = biological target: T1, Flag-FBXL6 (F-Box and Leucine Rich Repeat Protein 6), wild type; experiment: co-IP; Huh7 and Hepa1-6 cells transfected with Flag-FBXL6 for 48 h, lysed; indicated antibodies and Protein A/G PLUS-Agarose added to the lysates
# FBXL6(ΔLRR219-244) = biological target: T2, FBXL6(ΔLRR219-244); experiment: co-IP; wild-type FBXL6 or LRR deletion mutants with TKT in cells (Supplementary Fig. 6d); cells and antibodies not shown
# FBXL6(ΔLRR383-408) = biological target: T3, FBXL6(ΔLRR383-408); experiment: as above
# [2] = biological target: T1, Flag-FBXL6 (F-Box and Leucine Rich Repeat Protein 6), wild type; experiment: as above
# [3] = biological target: T1, Flag-FBXL6 (F-Box and Leucine Rich Repeat Protein 6), wild type; experiment: co-IP; Huh7 cells cotransfected with FBXL6 and TKT or TKT T287A for 48 h; pulldown with anti-Flag IgG
# [4] = biological target: T1, Flag-FBXL6 (F-Box and Leucine Rich Repeat Protein 6), wild type; experiment: co-IP; Huh7 and Hepa1-6 cells transfected with Flag-FBXL6 for 48 h, lysed; indicated antibodies and Protein A/G PLUS-Agarose added to the lysates; remark: listed apart in the source
molecule,measurement,setting,value
CCNA2 (from UniProt P20248 1-432),binding,[1],binds weakly
B1,binding,FBXL6(ΔLRR219-244),binds
same,binding,FBXL6(ΔLRR383-408),binds
same,binding,[2],binds
B2,binding,[3],binds
B3,binding,[4],binds
B4,binding,[3],no binding
